Results from the BET-seq Pho4 binding data (Le et al. 2018).
The list shows a part of the results. These are noisy estimates, calculated here from bound and input reads.

The sequences below were run against T1, Pho4 (S. cerevisiae) (UniProt P07270) (assay: relative binding free energy (BET-seq); higher = weaker binding). Conditions: reference: library average.
T1 sequence: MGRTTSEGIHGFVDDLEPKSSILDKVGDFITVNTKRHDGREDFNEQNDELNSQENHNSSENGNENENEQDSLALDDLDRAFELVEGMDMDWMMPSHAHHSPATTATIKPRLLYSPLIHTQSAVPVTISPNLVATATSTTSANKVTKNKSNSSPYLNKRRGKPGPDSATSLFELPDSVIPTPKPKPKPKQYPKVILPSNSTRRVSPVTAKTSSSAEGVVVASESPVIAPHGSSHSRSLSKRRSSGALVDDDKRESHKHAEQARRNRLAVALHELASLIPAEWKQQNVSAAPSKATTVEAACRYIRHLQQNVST

Sequence	relative binding free energy
TTGCTCACGTGGAGTG	0.22 kcal/mol
TGATACACGTGGTAGG	-0.09 kcal/mol
GGATGCACGTGGTGCG	-0.19 kcal/mol
GTCTGCACGTGAGGTG	0.25 kcal/mol
TATTTCACGTGAGGCG	0.44 kcal/mol
GTCATCACGTGGTGAG	0.27 kcal/mol
GGTAACACGTGATATT	0.33 kcal/mol
ATATGCACGTGACTTG	-0.04 kcal/mol
CGTGGCACGTGAATGT	0.2 kcal/mol
AGGAGCACGTGAAGGC	0.14 kcal/mol
TTCAGCACGTGTTGAG	-0.07 kcal/mol
ACGTTCACGTGGGTTT	0.13 kcal/mol
AAGGGCACGTGCGCTT	-0.07 kcal/mol
TTGAGCACGTGAGTCT	0.19 kcal/mol
AATGACACGTGCGTGT	0.05 kcal/mol
AGAGTCACGTGGGGAG	0.06 kcal/mol
TCTAGCACGTGGAGGT	-0.11 kcal/mol
TTCGTCACGTGAGGGG	0.3 kcal/mol
CGTTGCACGTGAATTG	0.46 kcal/mol
TTTTCCACGTGTGTGC	0.19 kcal/mol
GTAGGCACGTGCTGAT	-0.12 kcal/mol
ATAGTCACGTGGAGGC	0.06 kcal/mol
AGTAGCACGTGGTATT	-0.19 kcal/mol
GGTGACACGTGGGCGC	-0.19 kcal/mol
CGTTTCACGTGATTTG	0.3 kcal/mol
TTACTCACGTGGCGTG	-0.04 kcal/mol

Sequence	relative binding free energy
GTTGACACGTGGTTTT	0.1 kcal/mol
TGGATCACGTGTTTGG	0.27 kcal/mol
GCAATCACGTGATTGG	0.36 kcal/mol
ATTGCCACGTGTTTAA	0.1 kcal/mol
GCGCTCACGTGTGGTA	0.35 kcal/mol
ATCGGCACGTGGTGTT	-0.32 kcal/mol
GTCGACACGTGTAAGT	0.27 kcal/mol
GGATTCACGTGTGACT	0.52 kcal/mol
TGGATCACGTGAAGGG	0.23 kcal/mol
GAGAGCACGTGGAGAG	0.07 kcal/mol
GGACACACGTGGGGCG	-0.12 kcal/mol
CGGAGCACGTGTGTTG	-0.07 kcal/mol
GGAGTCACGTGTGAAA	0.2 kcal/mol
TTTATCACGTGTTTTG	0.11 kcal/mol
TATTGCACGTGTGAGT	0.02 kcal/mol
GTTTACACGTGGGCAG	0.1 kcal/mol
GGGATCACGTGTTGTC	0.25 kcal/mol
GTGTTCACGTGTTTCT	0.22 kcal/mol
GTGCGCACGTGGAGGA	-0.14 kcal/mol
ATGTGCACGTGGTTTT	-0.06 kcal/mol
CGTTGCACGTGAGGTC	0.24 kcal/mol
CGTTTCACGTGTGGGC	0.36 kcal/mol
TCAGGCACGTGATAGT	-0.02 kcal/mol
AAGCTCACGTGTGGTA	0.19 kcal/mol
GTGCTCACGTGTGTAA	0.34 kcal/mol
AGAAACACGTGATGGT	0.08 kcal/mol

Sequence	relative binding free energy
AATGTCACGTGGAGAT	0.11 kcal/mol
AGTGTCACGTGTTGTG	0.12 kcal/mol
TCTATCACGTGTGTTA	0.16 kcal/mol
ATAAACACGTGTTTGA	-0.14 kcal/mol
GGATGCACGTGTACTG	-0.01 kcal/mol
TGGGACACGTGGGTAG	-0.01 kcal/mol
TGTGACACGTGTTAGG	0.06 kcal/mol
GTAGACACGTGTCTGT	0.06 kcal/mol
TAAGTCACGTGTAGAA	0.11 kcal/mol
CGTATCACGTGTGAGT	0.29 kcal/mol
TGGGGCACGTGGTTGA	-0.06 kcal/mol
AGTGGCACGTGTAGTT	-0.02 kcal/mol
TAAGACACGTGTGTAG	0.13 kcal/mol
AGTTGCACGTGGGGAT	-0.02 kcal/mol
CTTGACACGTGCGCGG	0.03 kcal/mol
AGGGACACGTGGAGGT	0.01 kcal/mol
AGGTCCACGTGGGTTT	-0.31 kcal/mol
GTTTGCACGTGTTAGC	0.15 kcal/mol
CGTGGCACGTGTTATG	-0.15 kcal/mol
ACTGACACGTGGGAGG	-0.08 kcal/mol
CTCTGCACGTGGTGTA	-0.1 kcal/mol
AGGGGCACGTGTCTGG	-0.04 kcal/mol
CTCGTCACGTGGAGTA	0.23 kcal/mol
TTTAGCACGTGTAGAC	0.03 kcal/mol
TGCATCACGTGTTTTG	0.12 kcal/mol
AAGAACACGTGGTGTA	-0.04 kcal/mol

Sequence	relative binding free energy
GGGTCCACGTGTGGGT	0.1 kcal/mol
TTTGTCACGTGGAGAG	0.15 kcal/mol
GTTGACACGTGCCGGG	-0.06 kcal/mol
TTGTCCACGTGGTTGT	-0.01 kcal/mol
CTGCACACGTGGGTGT	-0.15 kcal/mol
GATGACACGTGGTAGT	0.2 kcal/mol
AGGTTCACGTGGGGCA	0.15 kcal/mol
GGGCTCACGTGGTAGC	0.3 kcal/mol
GTGGCCACGTGCAGTG	-0.07 kcal/mol
TATTGCACGTGGTCTG	-0.23 kcal/mol
TAGAACACGTGGGCTG	-0.06 kcal/mol
AGTATCACGTGACTGT	0.27 kcal/mol
TTGGGCACGTGCCGTT	-0.2 kcal/mol
TGTGGCACGTGGACCT	-0.05 kcal/mol
TGACGCACGTGTAGGT	-0.17 kcal/mol
TGTTGCACGTGTTCGT	0.02 kcal/mol
AATATCACGTGTGGTC	0.16 kcal/mol
TGGTCCACGTGGCGTG	-0.03 kcal/mol
ACTTGCACGTGGGCGG	-0.16 kcal/mol
ATTTACACGTGCTGGG	0.04 kcal/mol
GGGGTCACGTGTTCAA	0.31 kcal/mol
TGTGGCACGTGATTGA	0.1 kcal/mol
GTGATCACGTGTTCTT	0.23 kcal/mol
TCCTGCACGTGGGGTT	-0.19 kcal/mol
CGGAGCACGTGGGTGG	-0.21 kcal/mol
TTTGTCACGTGTCAAG	0 kcal/mol

Sequence	relative binding free energy
CGGGTCACGTGCTGAT	0.03 kcal/mol
TGTCTCACGTGAAATT	0.32 kcal/mol
TTTGGCACGTGCGTTT	-0.15 kcal/mol
GAAGTCACGTGAGGGC	0.15 kcal/mol
TGATTCACGTGTGACA	0.37 kcal/mol
TAAATCACGTGTATAT	0.07 kcal/mol
GGCGGCACGTGGGTTT	-0.05 kcal/mol
GTTTGCACGTGACGGA	0.08 kcal/mol
GGCGTCACGTGAGTTT	0.36 kcal/mol
TTGAACACGTGATATG	0 kcal/mol
TTCTACACGTGTTGAG	0.06 kcal/mol
CTTTTCACGTGTCAGG	0.26 kcal/mol
GCTTGCACGTGGAGGT	0.07 kcal/mol
CGTGTCACGTGTGCAT	0.06 kcal/mol
AGAAACACGTGGATGG	0 kcal/mol
ATCTTCACGTGGAGAG	0.29 kcal/mol
GGGTACACGTGTCCGG	0.24 kcal/mol
TATTGCACGTGTACTG	-0.01 kcal/mol
GTGATCACGTGTGGGC	0.22 kcal/mol
ACGGGCACGTGGTTCT	-0.08 kcal/mol
TCATACACGTGGTGAG	0.03 kcal/mol
ATTGTCACGTGATTAG	0.3 kcal/mol
GTGTCCACGTGGATGT	-0.08 kcal/mol
AGGTACACGTGTCGAT	0.09 kcal/mol
CTGTGCACGTGAATGG	0.31 kcal/mol
GTTTACACGTGATATA	0.25 kcal/mol

Sequence	relative binding free energy
TCGTGCACGTGAGCGG	0.19 kcal/mol
GATTTCACGTGTCGGT	0.32 kcal/mol
GATTTCACGTGGTTTT	0.34 kcal/mol
CGTGTCACGTGGTTCA	0.05 kcal/mol
GCAGTCACGTGGGGTT	-0.02 kcal/mol
GGTGACACGTGGCAAT	0.1 kcal/mol
GGCTTCACGTGGAGGT	0.2 kcal/mol
GGGTGCACGTGCACGT	-0.18 kcal/mol
GGGGTCACGTGATGGT	0.38 kcal/mol
ATTCTCACGTGTGGAG	0.15 kcal/mol
AGTGGCACGTGGCAGC	-0.22 kcal/mol
GGGCTCACGTGTGGCG	0.29 kcal/mol
ATTGACACGTGTCGGT	-0.03 kcal/mol
AGTTACACGTGTGAGC	0.16 kcal/mol
ATAGTCACGTGCGGTT	0.13 kcal/mol
ATTCCCACGTGTTTGG	0.06 kcal/mol
GGTAACACGTGTTCGT	-0.01 kcal/mol
TGATTCACGTGTGACT	0.3 kcal/mol
TGGCACACGTGTGGCA	0.15 kcal/mol
AGTGGCACGTGAAGCG	0.16 kcal/mol
AACGGCACGTGTCTGG	0.19 kcal/mol
TGTATCACGTGTACAT	0.09 kcal/mol
TGATACACGTGGGAGG	0.02 kcal/mol
ATTTTCACGTGCGCGA	0.33 kcal/mol
ACGTGCACGTGAGGGT	0.13 kcal/mol
TATTACACGTGGGTTA	-0.16 kcal/mol

Sequence	relative binding free energy
TGACTCACGTGAGTTT	0.32 kcal/mol
GGGTACACGTGGCGAT	0.09 kcal/mol
TAGGTCACGTGTTTGG	0.06 kcal/mol
GGGAACACGTGTAGAG	0.06 kcal/mol
ATGGTCACGTGCGTAC	0.09 kcal/mol
ATGAGCACGTGCGATG	-0.07 kcal/mol
TTGAGCACGTGTTGCT	-0.05 kcal/mol
CGTCGCACGTGTTGGG	0 kcal/mol
TTCTACACGTGTGGTA	0.11 kcal/mol
TGGGCCACGTGGGGAA	-0.1 kcal/mol
AAGGGCACGTGAACGT	-0.01 kcal/mol
CGTTTCACGTGGGGGT	0.17 kcal/mol
GTCGGCACGTGTGATG	0.12 kcal/mol
GCTGGCACGTGTTAGT	0.11 kcal/mol
CAGGTCACGTGAGAGT	0.22 kcal/mol
TTGTGCACGTGATGGA	0.06 kcal/mol
TTGTACACGTGCGATA	0.16 kcal/mol
GTATGCACGTGAGTTA	0.18 kcal/mol
CTTGACACGTGGGGAG	-0.05 kcal/mol
AGCATCACGTGGGGGC	0.06 kcal/mol
GTTGTCACGTGTTATC	0.25 kcal/mol
TTTATCACGTGAGGGT	0.34 kcal/mol
AGTTGCACGTGTTTGA	-0.1 kcal/mol
TTAAACACGTGAGAGT	0.33 kcal/mol
GTTAGCACGTGGGTTA	-0.28 kcal/mol
AGGGGCACGTGTTTCT	-0.12 kcal/mol

Sequence	relative binding free energy
ATGCACACGTGGTGGA	-0.1 kcal/mol
GGTTCCACGTGGTCTT	0.09 kcal/mol
GGTGGCACGTGCGTTC	-0.03 kcal/mol
TTATTCACGTGGTACG	0.14 kcal/mol
GGGGCCACGTGGTGGT	-0.07 kcal/mol
CGATTCACGTGTGTTG	0.15 kcal/mol
TATGGCACGTGGGGCA	-0.16 kcal/mol
TCTGGCACGTGGCTGG	-0.23 kcal/mol
TTTGCCACGTGGGTTC	-0.04 kcal/mol
GTGTTCACGTGGTGCA	0.22 kcal/mol
GGTGTCACGTGATAGA	0.3 kcal/mol
AAAATCACGTGATGGG	0.31 kcal/mol
TGTAGCACGTGTTCGG	-0.03 kcal/mol
ACTTTCACGTGGGCGT	0.12 kcal/mol
AGGTGCACGTGGGATT	-0.18 kcal/mol
GCTTGCACGTGCAGGG	-0.02 kcal/mol
TGGTTCACGTGCGTCG	0.05 kcal/mol
TGGCCCACGTGGGGTT	-0.29 kcal/mol
GGAGGCACGTGTTGTA	-0.11 kcal/mol
AATAACACGTGCGGTG	-0.05 kcal/mol
GTGCGCACGTGAGGCT	0.08 kcal/mol
TTTGTCACGTGTAGGG	0.16 kcal/mol
ATAGCCACGTGTAGGT	-0.14 kcal/mol
TAGCTCACGTGAGGTT	0.36 kcal/mol
AGCGGCACGTGGGATA	-0.19 kcal/mol
GGTGTCACGTGTACGA	0.06 kcal/mol

Sequence	relative binding free energy
ATTGTCACGTGCCTTG	-0.03 kcal/mol
GTACACACGTGGGGTA	0.06 kcal/mol
GTCGTCACGTGTGTTT	0.18 kcal/mol
GTTGTCACGTGAAGTA	0.29 kcal/mol
TGATTCACGTGGTATG	0.19 kcal/mol
AGGTGCACGTGAGGTC	0.07 kcal/mol
ATGCGCACGTGGGATT	-0.23 kcal/mol
TCACGCACGTGGGTGG	-0.26 kcal/mol
TATGTCACGTGTTAGA	-0.02 kcal/mol
GGTGCCACGTGTGGAT	0.04 kcal/mol
TGGAGCACGTGTTATA	-0.16 kcal/mol
TTGTGCACGTGCGGGA	-0.06 kcal/mol
GGGTTCACGTGGTCGT	0.25 kcal/mol
ATGGACACGTGATGAG	0.32 kcal/mol
GGTTCCACGTGGCGTG	0.07 kcal/mol
CTTTTCACGTGTTTAG	0.22 kcal/mol
TTTGGCACGTGTTCGC	-0.13 kcal/mol
CCATGCACGTGAGGGT	0.18 kcal/mol
CTCTACACGTGGGGGT	-0.06 kcal/mol
TTATACACGTGTTGGA	0.02 kcal/mol
TATTTCACGTGGTGCT	0.24 kcal/mol
AGTCTCACGTGTTGGG	0.27 kcal/mol
